# Results from article PMC12136788.
# This is one part of the list.
# T1: UNK ZnF1-3 (human, UniProt Q9C0B0 31-174)
# T1 sequence: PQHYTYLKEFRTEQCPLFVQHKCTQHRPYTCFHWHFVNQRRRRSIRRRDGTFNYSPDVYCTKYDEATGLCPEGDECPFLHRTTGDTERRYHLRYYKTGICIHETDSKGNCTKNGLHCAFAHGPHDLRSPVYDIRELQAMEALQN
# B1: chr3:176740097:176740098:-_ENSG00000177565_ENST00000430069|hu_mus|hu_hu_hu_mus_True|38_48 (ssRNA)
# RNA: GGGAGUUCUACAGUCCGACGAUCUGUUUUGUAUACCACAAAAGGAGGCACUUUCAGUAUCUGCAAAAGGUGUUUAGUCCUAAAACAUACUUACCUAGAGAAUAAUUCAGGAAAACAAUCUGUUACACUCUAAGACCUACUCCACAACAGAGGAUUGAGCAUCA
# B2: chr4:25749455:25749456:-_ENSG00000091490_ENST00000264868|hu_hu|hu_hu_hu_mus_False|1_88 (ssRNA)
# RNA: GGGAGUUCUACAGUCCGACGAUCGCACUAUGACCUCUAGAAAAAUCAUUCAAGGAGAAAAAUGUAAACCAAUGUACAAUGUUAUCGCCUUCCCUGUGUGUGGAGUGUUUGUCUCAAGGCUCCUUCUAGCUGCUGGACUGCUAGCAACAGAGGAUUGAGCAUCA
# B3: 71360418_71360538_892_CDS_ENSG00000124383_ENST00000244230|human|control|control (ssRNA)
# RNA: GGGAGUUCUACAGUCCGACGAUCUACUAUGGACUUUUCUCUUGGUUUUCCCUGUCCUUUGUUUUGCACCUUGCUCUGCUGUUCCAAUUUGCUGAUAUCAAAGUCAAGGUCAGAAUCCUCAUCACUGAAAACGGGGCUUUUCCUCAACAGAGGAUUGAGCAUCA
# B4: chr16:94664741:94664742:+_ENSMUSG00000040785_ENSMUST00000117648|mus_hu|mus_mus_mus_hu_False|28_78 (ssRNA)
# RNA: GGGAGUUCUACAGUCCGACGAUCUGGUACUGAUCUUGGUAGCUGAUAUUCAGGAGAAAUGUUGGCCAAGGGUGUAUAUAUGCUGGUGUACUGGGGCAAACCUGGUACCAUGUUAAUGUAUGCUGGCGGUGUCUGGGUGAUAUCCAACAGAGGAUUGAGCAUCA
# B5: chr10:5827197:5827198:-_ENSG00000057608_ENST00000380191|perfect_dup|FALSE|FALSE (ssRNA)
# RNA: GGGAGUUCUACAGUCCGACGAUCAUAAAGGUAUGGGCUUUUGCCAUAUCUUGCCAAAGAUUCACUGUAAAGUUUAAUUCUAUUAAUGGUUUCAUAACACGGUUGAUCUAAGUAAUCAUCAGUUCUGUAAAGUGCAAGAGCAUGCAACAGAGGAUUGAGCAUCA
# B6: chr3:196311055:196311056:+_ENSG00000174013_ENST00000440469|hu_hu|motif|central (ssRNA)
# RNA: GGGAGUUCUACAGUCCGACGAUCGACCUUUGGAAGUCCUCUAAAAGCAACCCCCAGGAACUCAUAUCCACGUUCAAAAGCGGAAGUCUUAUCUUCCAUGUCCAAGAUGACUCGAAUUCUUUCUCCUAUCUGAUAUUUUGGUGCCAACAGAGGAUUGAGCAUCA
# B7: chr13:100518589:100518590:+_ENSG00000125246_ENST00000339105|hu_mus|motif|central (ssRNA)
# RNA: GGGAGUUCUACAGUCCGACGAUCUUCCCUUGACUGUCUGAGAAGUCCGUCUUCAUCUCGGAAGUCAAUGUACACAAGAUCGGUGGCUUGUAGGCCAAAGGCUUUUGCCGUGACAACAACCUUCUGCCGGGCAUAGAGGAUGUCCAACAGAGGAUUGAGCAUCA
# B8: chr16:94690093:94690094:+_ENSMUSG00000040785_ENSMUST00000117648|mus_hu|mus_mus_mus_hu_True|38_88 (ssRNA)
# RNA: GGGAGUUCUACAGUCCGACGAUCGGGCUGGGAUGACGGACACACAGAUCUUCCCAGAGGGGGAAAAAGUCUUAGUCGAUACUAAUUAAAAAGUGUUUUUAUAAUUGGAAAAUCAGAUUACAUCUAUAAAAGAUGAAAAGCAAACAACAGAGGAUUGAGCAUCA
# B9: chr2:84536551:84536552:-_ENSMUSG00000034075_ENSMUST00000035840|mus_hu|FALSE|FALSE (ssRNA)
# RNA: GGGAGUUCUACAGUCCGACGAUCCUUGUCCUCAUCCUCCUCAGCUCGAGGGAAAAUCCCUGGGUCCAUGAAGGUGGCCAUGCUGAAGUUGGCCAACACAAAGAGAAACAUAAUUGCAUUGUAGAUGGGCACUGCAGGUGACACCAACAGAGGAUUGAGCAUCA
# B10: chr3:52726942:52726943:+_ENSG00000163938_ENST00000418458|hu_mus|motif|central (ssRNA)
# RNA: GGGAGUUCUACAGUCCGACGAUCCCGAAGGGCAAGUGCAGUGGGGGAGUUACAAGGUGAGAUAAUUAGGCAUGGACUGUCGGUGAUUGUGAUCUGCUUGUCUAAAGGGACAAUCUGCAUGCUCCUUGUAAGUCCCAUGGAAAUCAACAGAGGAUUGAGCAUCA
# B11: 17148536_17150076_701_CDS_ENSMUSG00000025777_ENSMUST00000026879|mouse|control|control (ssRNA)
# RNA: GGGAGUUCUACAGUCCGACGAUCAUCCAAGACCUUCUCCAACUCAUCAAGAAUUUUCUUCAAGUAUUUGACAUUGUCAUGAUCAAGCAGCUUUGACUUAAGUCGCUUCUGUUUGGCAAUGUAUGCCUCUUGUAAGUCAGGGUUCAACAGAGGAUUGAGCAUCA
# B12: 35972526_35972646_928_CDS_ENSMUSG00000001525_ENSMUST00000001566|mouse|control|control (ssRNA)
# RNA: GGGAGUUCUACAGUCCGACGAUCCUGGCCCGGGAAACGGAGGCAGGUGGUGACGCCGCUCAUGGUGGCCGAGACGAGAUGGUUCAGGUCUCCGUAGGUUGGCGUGGUGAGCUUGAGGGUACGGAAGCAGAUGUCGUAGAGGGCCAACAGAGGAUUGAGCAUCA
# B13: chr7:7679991:7679992:-_ENSG00000106399_ENST00000396682|hu_hu|hu_hu_hu_mus_False|28_38 (ssRNA)
# RNA: GGGAGUUCUACAGUCCGACGAUCUGGGAUGAAUCUUUUCCAGCUUCCCCACGAAGCACACGGGCCGGUCGAUAUACUGUGGUAACAUGCUGGCGUUGAUGCGCGACCUGGGCAAGUGCAUUAUGUCCUCCAUGAUUCUGCCGCCAACAGAGGAUUGAGCAUCA
# B14: chr3:176767854:176767855:-_ENSG00000177565_ENST00000430069|hu_hu|hu_hu_hu_mus_False|28_108 (ssRNA)
# RNA: GGGAGUUCUACAGUCCGACGAUCGACAUCCUUGUUGCUGGGCACGUCCUGCCCUCCUUCCCGUAUGCAGUGUCUAAGCACGAGCUGCGUAGGGCCACUCGUGCUGUUCUCACUAAGGUUCCAGAUUCUUGCCGUGGAGUCUCCCAACAGAGGAUUGAGCAUCA
# Molecular target: T1, UNK ZnF1-3
# Test: nsRBNS (natural sequence RNA bind-n-seq); RBNS binding buffer (assumed for nsRBNS): 25 mM Tris pH 7.5, 150 mM KCl, 3 mM MgCl2, 0.01% Triton X-100, 500 ug/ml BSA, 20 U/ml SUPERase-In, 4 C; UNK is unkempt and MSI1 is Musashi-1; names of the RNAs are library labels; protein concentration not given here; high values mean tight binding
row,Binder,binding signal
1,B1,0.812 enrichment R
2,B2,0.991 enrichment R
3,B3,0.52 enrichment R
4,B4,0.902 enrichment R
5,B5,0.743 enrichment R
6,B6,1.01 enrichment R
7,B7,0.919 enrichment R
8,B8,2.58 enrichment R
9,B9,1.05 enrichment R
10,B10,0.821 enrichment R
11,B11,0.437 enrichment R
12,B12,1.33 enrichment R
13,B13,0.621 enrichment R
14,B14,0.502 enrichment R
